A lower IC50 marks a more sensitive line; where the fit passes the top or lowest dose, that dose stands as a limit. The AUC spans the tested range (256-fold, ending at the top dose) of the same fit; the more sensitive the line, the further below 1. The top dose, if marked as inferred, comes from the curve model; the source does not state it. An entry number marks a drug with two screens in the source, which often give different values.
Compound: CS(=O)(=O)N1CCN(Cc2cc3nc(-c4cccc5[nH]ncc45)nc(N4CCOCC4)c3s2)CC1 [GDC0941]
Experiment: Viability of human cancer cell lines after 72 h of drug (GDSC screen)
Protocol: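 Human cancer cell lines in 384-well plates, medium with 10% serum, drug for 72 h over a 256-fold dose range (nine 2-fold or five 4-fold steps up to the top dose). Adherent lines were fixed and stained with the nucleic acid dye Syto60, suspension lines read with resazurin; signal relative to control wells, capped at 0 and 100%. One two-parameter sigmoid per drug and line, fitted in a mixed model over all curves with the slope shared within a line.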

[1] = top dose 4 µM, screen: GDSC drug entry 1527, top dose inferred

## BT-474 (breast, adherent, top dose 4 µM)
screen: GDSC drug entry 1058
  AUC: 0.838
  IC50: 3.18 µM

## HT-1197 (bladder, adherent, top dose 4 µM)
screen: GDSC drug entry 1058
  AUC: 0.92
  IC50: > 4 µM

## NCI-H2009 (lung adenocarcinoma, adherent, top dose 4 µM)
screen: GDSC drug entry 1058
  AUC: 0.737
  IC50: 1.24 µM

## KM12 (large intestine, adherent, top dose 4 µM)
screen: GDSC drug entry 1058
  AUC: 0.961
  IC50: > 4 µM

## CAS-1 (glioma, adherent, top dose 4 µM)
screen: GDSC drug entry 1058
  AUC: 0.928
  IC50: > 4 µM

## DMS-114 (small cell lung carcinoma, adherent, top dose 4 µM)
screen: GDSC drug entry 1058
  AUC: 0.836
  IC50: 3.25 µM

## HCC2157 (breast, suspension, top dose 4 µM)
screen: GDSC drug entry 1058
  AUC: 0.462
  IC50: 0.196 µM

## T-T (oesophagus, adherent, top dose 4 µM)
screen: GDSC drug entry 1058
  AUC: 0.72
  IC50: 1.05 µM

## SK-N-AS (neuroblastoma, adherent, top dose 4 µM)
screen: GDSC drug entry 1058
  AUC: 0.919
  IC50: > 4 µM

## SW620 (large intestine, adherent, top dose 4 µM)
screen: GDSC drug entry 1058
  AUC: 0.988
  IC50: > 4 µM

## P32-ISH (Burkitt lymphoma, suspension, top dose 4 µM)
screen: GDSC drug entry 1058
  AUC: 0.731
  IC50: 0.928 µM

## RT4 (bladder, adherent, top dose 4 µM)
screen: GDSC drug entry 1058
  AUC: 0.987
  IC50: > 4 µM

## NCI-H1436 (small cell lung carcinoma, suspension, top dose 4 µM)
screen: GDSC drug entry 1058
  AUC: 0.943
  IC50: > 4 µM

## EFO-27 (ovary, adherent, top dose 4 µM)
screen: GDSC drug entry 1058
  AUC: 0.913
  IC50: > 4 µM

## LS-513 (large intestine, adherent, top dose 4 µM)
screen: GDSC drug entry 1058
  AUC: 0.863
  IC50: 3.67 µM

## HCC1937 (breast, adherent, top dose 4 µM)
screen: GDSC drug entry 1058
  AUC: 0.808
  IC50: 2.47 µM

## EM-2 (chronic myeloid leukaemia, suspension, top dose 4 µM)
screen: GDSC drug entry 1058
  AUC: 0.737
  IC50: 1.32 µM

## MHH-CALL-2 (B-cell leukaemia, suspension, top dose 4 µM)
screen: GDSC drug entry 1058
  AUC: 0.987
  IC50: > 4 µM

## CFPAC-1 (pancreas, adherent, top dose 4 µM)
screen: GDSC drug entry 1058
  AUC: 0.944
  IC50: > 4 µM

## NCI-H446 (small cell lung carcinoma, semi-adherent, top dose 4 µM)
screen: GDSC drug entry 1058
  AUC: 0.677
  IC50: 0.812 µM

## WM35 (melanoma, adherent, top dose 4 µM)
screen: GDSC drug entry 1058
  AUC: 0.749
  IC50: 1.31 µM

## H9 (lymphoid neoplasm, suspension, top dose 4 µM)
screen: GDSC drug entry 1058
  AUC: 0.992
  IC50: > 4 µM

## DND-41 (T-cell leukaemia, suspension, top dose 4 µM)
screen: GDSC drug entry 1058
  AUC: 0.937
  IC50: > 4 µM

## OACM5-1 (oesophagus, semi-adherent, top dose 4 µM)
screen: GDSC drug entry 1058
  AUC: 0.961
  IC50: > 4 µM

## OCI-M1 (acute myeloid leukaemia, suspension, top dose 4 µM)
screen: GDSC drug entry 1058
  AUC: 0.99
  IC50: > 4 µM

## Caov-4 (ovary, adherent, top dose 4 µM)
screen: GDSC drug entry 1058
  AUC: 0.972
  IC50: > 4 µM

## SW900 (lung squamous cell carcinoma, adherent, top dose 2 µM)
screen: GDSC drug entry 1058
  AUC: 0.962
  IC50: > 2 µM

## huH-1 (liver, adherent, top dose 4 µM)
screen: GDSC drug entry 1058
  AUC: 0.715
  IC50: 1.18 µM

## LN-18 (glioma, adherent, top dose 4 µM)
screen: GDSC drug entry 1058
  AUC: 0.929
  IC50: > 4 µM

## Detroit562 (head and neck, adherent, top dose 4 µM)
screen: GDSC drug entry 1058
  AUC: 0.931
  IC50: > 4 µM

## Saos-2 (osteosarcoma, adherent, top dose 4 µM)
screen: GDSC drug entry 1058
  AUC: 0.69
  IC50: 1.08 µM

## BICR78 (head and neck, adherent, top dose 4 µM)
screen: GDSC drug entry 1058
  AUC: 0.588
  IC50: 0.453 µM

## COR-L32 (small cell lung carcinoma, suspension)
[1]
  AUC: 0.77
  IC50: 3.71 µM

## HT-1376 (bladder, adherent, top dose 4 µM)
screen: GDSC drug entry 1058
  AUC: 0.874
  IC50: > 4 µM

From the supplement of paper PMC4967469
